Experimental data from patent US20220296690A1 (Pieris, published 2022).

Molecular target: T1, Recombinant human CTLA-4 (human, UniProt P16410 36-161, limits assumed)
T1 sequence (looked up): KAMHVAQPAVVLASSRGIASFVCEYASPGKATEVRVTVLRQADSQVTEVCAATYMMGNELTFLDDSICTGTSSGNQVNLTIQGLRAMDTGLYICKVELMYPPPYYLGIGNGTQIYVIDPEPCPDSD
Assay: ELISA; recombinant human CTLA-4 coated, T cell culture supernatant added, detected with rabbit anti-NGAL polyclonal antibody and goat anti-rabbit IgG-HRP
Experimental: FIG. 5: Detection of functional T-cell secreted Fc fusion of a CTLA-4 antagonist by ELISA. The supernatant of human peripheral blood T cells, mock-transduced or transduced with pSIN-(NFAT)6-αCTLA-4-Fc and cultured under activatory conditions (cf. Example 3 and FIG. 4) was analyzed for the presence of the functionally active Fc fusion of the CTLA-4 antagonist SEQ ID NO: 29 by ELISA. Recombinant human CTLA-4 was coated on an ELISA Plate as described in Example 3, and culture supernatants of transduced and mock-transduced T cells were added. Plate-bound SEQ ID NO: 29 was detected by primary staining with an anti-NGAL polyclonal rabbit antibody, secondary staining using goat anti rabbit IgG-HRP and addition of a chromogenic HRP substrate as described in Example 3.
Supernatants were analyzed for the presence of functionally active Anticalin-based CTLA-4 antagonist by ELISA as described in the following: Recombinant human CTLA-4 at a concentration of 5 μg/mL in PBS was added to each well of a 384 well ELISA plate and incubated over night at 4° C. […] Subsequently, rabbit anti-NGAL polyclonal antibody at a concentration of 1 μg/mL in PBS/0.1% (w/v) Tween20/2% (w/v) BSA was added, and bound antibody was detected using goat anti-rabbit IgG-HRP in a dilution of 1:5,000 in PBS/0.1% (w/v) Tween20/2% (w/v) BSA. […]

binding result: binds
B1: Fc fusion of the Anticalin-based CTLA-4 antagonist, mature processed secreted form (SEQ ID NO: 29) (Fc fusion)
chain: QDSTSDLIPAPPLSKVPLQQNFQDNQFQGKWYVVGLAGNRILRQDQHPMLMYATIYELKEDKSYQVTSVISSHKKCLYPIATFVPGSQPGEFTLGNIKSYGDKVSYLVRVVSTNYNQHAMVFFKHADTNYESFSITLYGRTKELTSELKENFIRFSKSLGLPENHIVFPVPIDQCIDGSAWSHPQFEKDPA[human IgG1 Fc with C220P (EU numbers) omitted]
notes: Fusion of the Anticalin-based CTLA-4 antagonist to the Fc fragment of a human IgG1 antibody; also called αCTLA-4-Fc
